Data: the antibiotic and cytotoxicity screens of Wong et al. (2023)
The other results are listed elsewhere or left out.

Columns and labels:
[1] = system: HSkMC (human skeletal muscle cells); experiment: cytotoxicity call (relative viability < 0.9); settings: 10 µM
[2] = system: HepG2; experiment: cytotoxicity call (relative viability < 0.9); settings: 10 µM
[3] = system: S. aureus RN4220; experiment: growth inhibition call (relative growth <= 0.2); settings: 50 µM

Structure (SMILES)	cytotoxicity call [1]	cytotoxicity call [2]	growth inhibition call [3]
CCCNC(=O)N1C[C@]2(CCN(CC2)C(=O)Cc2cccnc2)c2c([nH]c3cc(ccc23)OC)[C@@H]1CO	inactive	inactive	inactive
CC(C)NC(=O)N(C)C[C@@H]1Oc2ccc(NS(=O)(=O)c3cccs3)cc2CC(=O)N([C@@H](C)CO)C[C@H]1C	inactive	inactive	inactive
C[C@H]1CN([C@@H](C)CO)C(=O)c2cc(NC(=O)Cn3cnnn3)ccc2O[C@@H]1CN(C)C(=O)Nc1cccc2ccccc12	inactive	inactive	inactive
O=C(C[C@@H]1CC[C@H]2[C@@H](COC[C@H](O)CN2C(=O)c2ccc3c(c2)OCO3)O1)NCCN1CCCC1	inactive	inactive	inactive
Cn1cnc(S(=O)(=O)N2C[C@@H](O)COC[C@@H]3O[C@H](CC(=O)NCc4ccc(F)cc4)CC[C@H]32)c1	inactive	inactive	inactive
Cn1c(=O)c2cc(S(=O)(=O)N3CCOCC3)ccc2n(C)c1=O	inactive	inactive	inactive
C[C@@H]1CN([C@@H](C)CO)C(=O)Cc2cc(NC(=O)c3ccncc3)ccc2O[C@H]1CN(C)Cc1ccc(-c2ccccc2)cc1	inactive	active	inactive
C[C@@H]1CN([C@H](C)CO)C(=O)c2cc(NS(=O)(=O)c3cccs3)ccc2O[C@@H](C)CCCCO[C@H]1CN(C)C(=O)C1CCCCC1	inactive	inactive	inactive
COc1ccc(C(=O)Nc2ccc(CN3C(=O)[C@@]4(O[C@@H](CC(=O)N5Cc6ccccc6C[C@H]5CO)[C@H]([Si](C)(C)c5ccc(OC)cc5)[C@H]4C)c4ccccc43)cc2)cc1	inactive	inactive	inactive
